The text below walks through data of ChEMBL document CHEMBL4888484, “Replenishing the malaria drug discovery pipeline: Screening and hit evaluation of the MMV Hit Generation Library 1 (HGL1) against asexual blood stage Plasmodium falciparum ,using a nano luciferase reporter read-out” (2022).

Molecules are shown by their SMILES. Among all 150,000 compounds or so, about 540 (0.36%) showed an effect of 50% or more. This is one part of the list.

For orientation: % Inhibition means the drop in the measured response relative to a control, in per cent.

The test system of this experiment is Plasmodium falciparum. Kind of experiment: Primary screen in NF54 nanoGlo assay, in single point, at 2uM, 72h; a lower Z score goes with more inhibition. Format: functional, Erythrocyte. Particulars: timepoint 72 hour.
Consider `CO[C@H]1CN(C2CCN(Cc3ccc(F)cc3F)CC2)[C@H]1c1cccnc1`, for which the “% Inhibition” value is -11% and the Z score is 1.24.
For `Cc1ccc(C(=O)N[C@H]2CCCN(C(=O)C(C)C)C2)n1C(F)F`, in that order: -3% and 0.55.
For `CC1C(=O)CCN(C)C1c1ccccc1` (stereo not drawn), in that order: 2% and -0.35.
Turning to `CC(C)COc1ccccc1[C@H]1CC(=O)Nc2c(S(=O)(=O)c3ccccc3)csc21`, the “% Inhibition” value is recorded as -1% and the Z score was 0.15.
For `O=C(CC1c2ccccc2CCc2ccccc21)NCCN1CCCCC1=O`, in that order: 9% and -1.36.
In the same order, the values of `COC[C@H]1CCN(Cc2[nH]c3ccc(Cl)cc3c2C)C1` are 0% and -0.03.
For `CCNC(=O)Cn1ccc(-c2cccc(-c3nccc4ccccc34)c2)n1`, in that order: -12% and 1.42.
With `c1ccc(C(c2ccccc2)c2n[nH]c3c2CN(CCCn2ccnc2)CC3)cc1`, the “% Inhibition” value is on record as 0% and the Z score was determined as 0.02.
`C[C@@H](c1ccc(Cl)cc1Cl)N(C)S(=O)(=O)CC1CCOCC1`: the “% Inhibition” value is on record as -12% and the Z score came out at 1.18.
In the same order, the values of `O=C(NCC1(CO)CC2(CCC2)C1)[C@H]1CCc2nncn2C1` are 31% and -3.48.
With `COCCNC(=O)C[C@H](CCc1ccccc1)c1c[nH]c2ccc(Cl)cc12`, the “% Inhibition” value is given as -1% and the Z score worked out at 0.14.
`CCC1CN(C(=O)Nc2cnn(C)c2)CCC1c1ccccc1` (stereo not drawn): the “% Inhibition” value is given as -10% and the Z score is 1.04.
In the same order, the values of `CS(=O)(=O)N1CCCN(C(=O)NCCc2ccccc2)CCNC(=O)C[C@H]1c1ccccc1` are -6% and 1.14.
For `CN1CCN(C(=O)N2CC[C@H](Oc3cnc4ccccc4n3)C2)CC1`, in that order: -1% and 0.21.
For `CC(=O)NCC(=O)Nc1nccc2sccc12`, in that order: 1% and -0.08.
As to `Cc1ccnc(NC(=O)[C@@H]2CCCc3ccccc32)n1`, the “% Inhibition” value is listed as -9% and the Z score is 1.31.
`CC1(C(=O)O)CCC(C(=O)Nc2ccc(Nc3ccccc3)cc2)C1(C)C` (stereo not drawn): the “% Inhibition” value was -5% and the Z score was found to be 0.94.
In the same order, the values of `COc1ccc(C2CC(=O)N(Cc3ccccc3)C(=O)C2)cc1OC` are -1% and 0.25.
For `COc1ccc(N(C)S(=O)(=O)c2c(-c3ccccc3)csc2C(=O)Nc2cccc(C)c2)cc1`, in that order: -14% and 1.89.
In the same order, the values of `COc1ccc(CCC(=O)N2CCC3(CC2)C[C@@H](CCOCC2CC2)CCO3)cc1` are -9% and 1.72.
Consider `CC1CCN(Cc2nnnn2CCCC(=O)N2CCC(c3ccccc3)CC2)CC1`, for which the “% Inhibition” value is -8% and the Z score was determined as 1.05.
For `CC(C)Oc1ccc(S(=O)(=O)N[C@H]2CCCS(=O)(=O)C2)cn1`, in that order: -2% and 0.21.
As for `O=C(Nc1nnc(-c2ccccc2)o1)[C@@H]1COc2ccccc2O1`, the “% Inhibition” value is listed as -10% and the Z score is listed as 1.74.
For `CC1(c2ccccc2)COC2(OC1)C(=O)N(CN1CCOCC1)c1ccccc12` (stereo not drawn), in that order: -1% and 0.26.
In the same order, the values of `Cc1nc(-c2noc(-c3cccc(F)c3)n2)cn1CC(=O)Nc1ccc(F)cc1` are -4% and 0.47.
In the same order, the values of `CCc1nnc(C(=O)N(CC)CC(CC)CC)s1` are -7% and 0.98.
As for `N#C[C@@H](C(=O)Nc1cccnc1)c1nc2cc(Cl)ccc2s1`, the “% Inhibition” value was found to be 5% and the Z score is listed as -0.72.
In the same order, the values of `O=C(N[C@H]1CC2(CCCCC2)Oc2ccccc21)N1CCS(=O)(=O)CC1` are -1% and 0.09.
For `CN(Cc1cc(C2CC2)on1)Cc1ccc([C@@H]2CCCO2)s1`, in that order: -6% and 1.13.
For `CC1CCN(C[C@@H]2OC[C@H](NC(=O)c3cccs3)[C@H]2O)CC1`, in that order: 5% and -0.6.
Take `COc1ccccc1C(=O)Nc1c(C(=O)N2CCC(C)CC2)sc2nc(C)c(Cl)c(C)c12`: the “% Inhibition” value is given as -1% and the Z score amounted to 0.07.
For `O=C(C(C1CC1)C1CC1)N1CCn2ncnc2C1`, in that order: 3% and -0.57.
In the same order, the values of `CCC(C)CC(C)NC(=O)N1CCOCC1CC(C)O` (stereo not drawn) are -8% and 1.05.
In the same order, the values of `FC(F)(F)CN1CC[C@H](NC2Cc3ccccc3C2)C1` are -3% and 0.44.
On to `CS(=O)(=O)c1ccc(CN2CC(c3cccnc3)C2)cc1`, for which the “% Inhibition” value was -1% and the Z score is reported as 0.2.
With `COCC1(Cn2cnc3ccc(OC)cc3c2=O)CCC1`, the “% Inhibition” value is -5% and the Z score came out at 0.69.
For `O=C(c1cc2sccc2[nH]1)N1CCc2nc[nH]c2[C@H]1c1ccncc1`, in that order: -2% and 0.39.
Turning to `O=C(COc1ccccc1F)c1ccc2c(c1)N(Cc1ccc(C(=O)NCCc3ccccn3)o1)C(=O)CO2`, the “% Inhibition” value is -20% and the Z score turned out to be 1.86.
For `CCn1ncc2c1CCCC2NC(C)C(=O)Nc1nc(C)c(C)s1` (stereo not drawn), in that order: -2% and 0.14.
For `NC1CCC(C(=O)N(Cc2cccs2)Cc2cccs2)C1` (stereo not drawn), in that order: -6% and 0.6.
For the molecule `CN(C)c1nc(N2CCN(C3CCCCC3)CC2)nc2c1CN(S(=O)(=O)c1cccc(Cl)c1)CC2`, the “% Inhibition” value is reported as -5% and the Z score worked out at 1.01.
On to `O=C(CN1CCCCCC1)Nc1nc(-c2ccccc2)cc(-c2ccc(Cl)cc2)n1`, for which the “% Inhibition” value is listed as -9% and the Z score is listed as 1.44.
In the same order, the values of `Cc1ccc(CC(=O)Nc2ccc(OC3CCCCC3O)cc2)o1` (stereo not drawn) are -5% and 0.62.
In the same order, the values of `Cc1ccc(-c2cc(O)c3c(c2)CNCCO3)s1` are -5% and 0.7.
In the same order, the values of `Cc1noc(CN2CCCC[C@H]2C(=O)Nc2cccc(-c3nnc(C)s3)c2)n1` are -4% and 0.56.
Take `CC1CN(C(=O)C2=NN(C)C(=O)CC2)C(C)CO1` (stereo not drawn): the “% Inhibition” value is -8% and the Z score was 0.77.
`Cc1ccc(N2CCCN(Cc3ccc(OC(F)(F)F)cc3)C2=O)c(NC(=O)c2ccc(F)cc2F)c1`: the “% Inhibition” value is given as 2% and the Z score is listed as -0.23.
In the same order, the values of `COCCCNC(=O)CN(C)c1ccccc1OC` are -9% and 1.21.
In the same order, the values of `CNS(=O)(=O)C1CCN(C[C@@H](O)c2cc3ccccc3o2)CC1` are -15% and 1.74.
Regarding `Cc1cc(=O)cc(C(=O)N[C@@H](C)c2ncccc2C)[nH]1`, the “% Inhibition” value is recorded as 11% and the Z score was -1.23.
For `O=C(C[C@H]1C(=O)Nc2ccccc2N1C(=O)COc1ccc(Cl)cc1)Nc1ccccc1`, in that order: 8% and -1.17.
In the same order, the values of `Cc1cc2n(n1)CCCN(C(=O)Nc1ccc3nc(C)sc3c1)C2` are -4% and 0.72.
For `N#Cc1ccccc1OCC(=O)OCC(N)=O`, in that order: 11% and -1.53.
Take `CCc1ccccc1NC(=O)c1cn2c3c(cc(Br)cc3c1=O)CC2`: the “% Inhibition” value is given as -3% and the Z score was 0.35.
For `CNc1cc(-c2ccc(C(=O)N[C@@H](C)CCn3cccn3)cc2)nc(N)n1`, in that order: -7% and 1.05.
In the same order, the values of `CCCN1CCC(C(=O)N(Cc2ccco2)C[C@H]2CCCO2)CC1` are -2% and 0.36.
In the same order, the values of `COc1ccc(C(=O)N2CCC(F)(C(=O)N3CCCC3)CC2)cc1F` are -10% and 1.34.
Turning to `CS(=O)(=O)N1CCC(C(=O)Nc2ccccc2-c2ccc(=O)[nH]n2)CC1`, the “% Inhibition” value is -12% and the Z score is 1.52.
As to `CCCOC[C@H]1CCN(C(=O)Cn2ccc3ccccc3c2=O)C1`, the “% Inhibition” value is -5% and the Z score is 0.46.
In the same order, the values of `COCCNC(=O)NCC1(c2ccsc2)CCCC1` are -13% and 2.45.
For `CCCc1nn(-c2ccccc2)c(CC)c1C(=O)NCc1ccncc1`, in that order: 0% and 0.04.
In the same order, the values of `C=C(C)CS(=O)(=O)Nc1ccc(F)cc1` are -10% and 1.13.
Regarding `CCn1cnnc1CN(C)C(=O)c1ccc(-c2cnn(C)c2C(=O)OC)cc1`, the “% Inhibition” value is given as -4% and the Z score worked out at 0.74.
In the same order, the values of `C[C@@H](O)CNS(=O)(=O)c1cccc(C#N)c1Cl` are -3% and 0.5.
In the same order, the values of `Cc1ncc(NC(=O)Cc2ccccc2)n1-c1nc(-c2cccs2)cs1` are -38% and 4.42.
In the same order, the values of `CC(C(=O)NCc1cccs1)N1CCOC(Cn2cccn2)C1` (stereo not drawn) are -2% and 0.23.
On to `Cc1cccc(C)c1Nc1c(-c2cccs2)nc2cnccn12`, for which the “% Inhibition” value is recorded as -15% and the Z score is reported as 1.51.
For `COC(=O)c1n[nH]cc1-c1cc(-c2ccc(C)cc2C)nc(N)c1C#N`, in that order: 0% and 0.06.
Consider `Cc1ccccc1C1NC(=O)N(CC(O)Cn2cccn2)C1=O` (stereo not drawn), for which the “% Inhibition” value is -14% and the Z score is 2.54.
For `O=S1(=O)CC[C@H](CCN(CCO)Cc2ccc(F)cc2)C1`, in that order: -12% and 1.42.
In the same order, the values of `O=C(c1cnccn1)N1C[C@H]2CC[C@@H](C1)N(C(=O)CC1CCCCC1)C2` are 1% and -0.11.
For `Cc1ccc(C)c(S(=O)(=O)n2nc(C)c(S(=O)(=O)N3CCCCCC3)c2C)c1`, in that order: -14% and 1.29.
As for `Cc1c[nH]c(CN(C)C(=O)c2cccc(NCc3ccccn3)c2C)n1`, the “% Inhibition” value is -4% and the Z score was 0.77.
For `COc1cn(CC(=O)Nc2ccc3c(c2)OCCO3)c(CN2CCC(C)CC2)cc1=O`, in that order: -2% and 0.4.
For `Cc1n[nH]c(CN(C)CCN2CCCC[C@@H]2C)n1`, in that order: -2% and 0.31.
In the same order, the values of `CC1CN(c2nnc(C3CC3)n2CC2CCOC2)CC(C2CC2)O1` (stereo not drawn) are -4% and 0.7.
Regarding `OCCc1cc(CC2(NC3CCCCC3)COC2)no1`, the “% Inhibition” value was -5% and the Z score stood at 0.83.
In the same order, the values of `Cc1cc(C)n(-c2ccc(-n3cnnc3)cc2)n1` are -4% and 0.69.
In the same order, the values of `CC[C@H]1CCCCN1C(=O)C1CCN(C(=O)c2cccs2)CC1` are -16% and 1.92.
For `O=C(CN(CCN1CCOCC1)C(=O)C1CCC1)N1CCN(c2ccc(-c3ccc(Cl)cc3Cl)nn2)CC1`, in that order: -20% and 1.76.
For `CCc1nnc(NC(=O)N2CCN(C(=O)Cc3ccccc3)CC2)s1`, the “% Inhibition” value is -13% and the Z score was 1.3.
Regarding `O=C(C1CCCCC1)N1CCC[C@H](Oc2ccncn2)C1`, the “% Inhibition” value is on record as -4% and the Z score was 0.72.
For `Cc1cccc(OCCO[C@@H]2CCCCO2)n1`, in that order: -3% and 0.44.
On to `COc1cc(C)c(S(=O)(=O)N2CCN=C2Cc2cccc3ccccc23)cc1C`, for which the “% Inhibition” value is on record as -5% and the Z score is 0.73.
